# According to the supplement of paper PMC8728848:
# The other results are listed elsewhere or left out.
# B1: HPAIIITrx (Helix pomatia), Q1KM18 (protein)
# chain: MLFVTIISLGLLAIVHGQCALKTIAFSAAIDREQTFDANQVVIYDIVITNHGNAYDNSTGLFTAPVDGMYSFQLNLLTIKEKEGWLELVHNGQLKVSVYAKQDSTYDSSSNSVIIKMKEGDRVNVRAHKKSGLFGRDDELYNTFSGHFLSGL
# How the values were obtained:
# Assay in all cases: glycan array binding signal (z-score within array); higher = stronger binding
# Settings in all cases: glycan notation: IUPAC condensed, linker removed
# [1] = target: Neu5Ac(a2-3)Gal(b1-4)[Fuc(a1-3)]GlcNAc(b1-3)Gal
# Method in brief: (§1)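 The binding signal is a Z-score computed within each array and averaged over linkers. Arrays of the same protein sequence at different concentrations or buffers were also averaged together. Data originate from 3228 arrays in the Consortium for Functional Glycomics database, kept only where the protein sequence was available.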
# [2] = target: Neu5Ac(a2-3)Gal(b1-4)[Fuc(a1-3)]GlcNAc(b1-3)Gal(b1-4)GlcNAc
# Method in brief: as §1
# [3] = target: Neu5Ac(a2-3)Gal(b1-4)[Fuc(a1-3)]GlcNAc(b1-3)Gal(b1-4)[Fuc(a1-3)]GlcNAc(b1-3)Gal(b1-4)[Fuc(a1-3)]GlcNAc
# Method in brief: as §1
# [4] = target: Neu5Ac(a2-3)Gal(b1-4)[Fuc(a1-3)]GlcNAc(b1-3)GalNAc
# Method in brief: as §1
# [5] = target: Neu5Ac(a2-3)Gal(b1-4)[Fuc(a1-3)]GlcNAc(b1-6)[Gal(b1-3)]GalNAc
# Method in brief: as §1
# [6] = target: Neu5Ac(a2-3)Gal(b1-4)[Fuc(a1-3)]GlcNAc(b1-6)[Neu5Ac(a2-3)Gal(b1-3)]GalNAc
# Method in brief: as §1
# [7] = target: Neu5Ac(a2-3)Gal(b1-4)[Fuc(a1-3)]GlcNAc6S
# Method in brief: as §1
# [8] = target: Neu5Ac(a2-3)Gal6S(b1-4)GlcNAc
# Method in brief: as §1
# [9] = target: Neu5Ac(a2-3)Gal6S(b1-4)[Fuc(a1-3)]GlcNAc
# Method in brief: as §1
# Neu5Ac(a2-3)GalNAc = target: Neu5Ac(a2-3)GalNAc
# Method in brief: as §1
# [10] = target: Neu5Ac(a2-3)GalNAc(b1-4)GlcNAc
# Method in brief: as §1
# [11] = target: Neu5Ac(a2-3)[GalNAc(b1-4)]Gal(b1-4)Glc
# Method in brief: as §1
# [12] = target: Neu5Ac(a2-3)[GalNAc(b1-4)]Gal(b1-4)GlcNAc
# Method in brief: as §1
# [13] = target: Neu5Ac(a2-3)[GalNAc(b1-4)]Gal(b1-4)GlcNAc(b1-3)GalNAc
# Method in brief: as §1
# [14] = target: Neu5Ac(a2-3)[Neu5Ac(a2-6)]GalNAc
# Method in brief: as §1
# Neu5Ac(a2-6)Gal = target: Neu5Ac(a2-6)Gal
# Method in brief: as §1
# [15] = target: Neu5Ac(a2-6)Gal(b1-3)GlcNAc(b1-3)[Gal(b1-4)GlcNAc(b1-6)]Gal(b1-4)Glc
# Method in brief: as §1
# Neu5Ac(a2-6)Gal(b1-4)Glc = target: Neu5Ac(a2-6)Gal(b1-4)Glc
# Method in brief: as §1
# [16] = target: Neu5Ac(a2-6)Gal(b1-4)GlcNAc
# Method in brief: as §1
# [17] = target: Neu5Ac(a2-6)Gal(b1-4)GlcNAc(b1-2)Man
# Method in brief: as §1
# [18] = target: Neu5Ac(a2-6)Gal(b1-4)GlcNAc(b1-2)Man(a1-3)Man(b1-4)GlcNAc(b1-4)GlcNAc
# Method in brief: as §1
# [19] = target: Neu5Ac(a2-6)Gal(b1-4)GlcNAc(b1-2)Man(a1-3)[Gal(b1-4)GlcNAc(b1-2)Man(a1-6)]Man(b1-4)GlcNAc(b1-4)GlcNAc
# Method in brief: as §1
# [20] = target: Neu5Ac(a2-6)Gal(b1-4)GlcNAc(b1-2)Man(a1-3)[GlcNAc(b1-2)Man(a1-6)]Man(b1-4)GlcNAc(b1-4)GlcNAc
# Method in brief: as §1
# [21] = target: Neu5Ac(a2-6)Gal(b1-4)GlcNAc(b1-2)Man(a1-3)[GlcNAc(b1-2)Man(b1-4)GlcNAc(b1-2)Man(a1-6)]Man(b1-4)GlcNAc(b1-4)GlcNAc
# Method in brief: as §1
# [22] = target: Neu5Ac(a2-6)Gal(b1-4)GlcNAc(b1-2)Man(a1-3)[GlcNAc(b1-4)][Neu5Ac(a2-6)Gal(b1-4)GlcNAc(b1-2)Man(a1-6)]Man(b1-4)GlcNAc(b1-4)GlcNAc
# Method in brief: as §1
# [23] = target: Neu5Ac(a2-6)Gal(b1-4)GlcNAc(b1-2)Man(a1-3)[Man(a1-6)]Man(b1-4)GlcNAc(b1-4)GlcNAc
# Method in brief: as §1
# [24] = target: Neu5Ac(a2-6)Gal(b1-4)GlcNAc(b1-2)Man(a1-3)[Neu5Ac(a2-3)Gal(b1-4)GlcNAc(b1-2)Man(a1-6)]Man(b1-4)GlcNAc(b1-4)GlcNAc
# Method in brief: as §1
# [25] = target: Neu5Ac(a2-6)Gal(b1-4)GlcNAc(b1-2)Man(a1-3)[Neu5Ac(a2-6)Gal(b1-4)GlcNAc(b1-2)Man(a1-6)]Man(b1-4)GlcNAc(b1-4)GlcNAc
# Method in brief: as §1
# [26] = target: Neu5Ac(a2-6)Gal(b1-4)GlcNAc(b1-2)Man(a1-3)[Neu5Ac(a2-6)Gal(b1-4)GlcNAc(b1-2)Man(a1-6)]Man(b1-4)GlcNAc(b1-4)[Fuc(a1-6)]GlcNAc
# Method in brief: as §1
binder,measurement,setting,value
B1,glycan array binding signal (z-score),[1],-0.449
same,glycan array binding signal (z-score),[2],-0.166
same,glycan array binding signal (z-score),[3],0.089
same,glycan array binding signal (z-score),[4],-0.151
same,glycan array binding signal (z-score),[5],0.298
same,glycan array binding signal (z-score),[6],0.008
same,glycan array binding signal (z-score),[7],-0.453
same,glycan array binding signal (z-score),[8],-0.114
same,glycan array binding signal (z-score),[9],-0.366
same,glycan array binding signal (z-score),Neu5Ac(a2-3)GalNAc,-0.343
same,glycan array binding signal (z-score),[10],-0.416
same,glycan array binding signal (z-score),[11],-0.432
same,glycan array binding signal (z-score),[12],-0.457
same,glycan array binding signal (z-score),[13],0.26
same,glycan array binding signal (z-score),[14],-0.355
same,glycan array binding signal (z-score),Neu5Ac(a2-6)Gal,-0.412
same,glycan array binding signal (z-score),[15],-0.431
same,glycan array binding signal (z-score),Neu5Ac(a2-6)Gal(b1-4)Glc,-0.279
same,glycan array binding signal (z-score),[16],-0.355
same,glycan array binding signal (z-score),[17],-0.286
same,glycan array binding signal (z-score),[18],-0.231
same,glycan array binding signal (z-score),[19],-0.435
same,glycan array binding signal (z-score),[20],-0.166
same,glycan array binding signal (z-score),[21],-0.19
same,glycan array binding signal (z-score),[22],-0.402
same,glycan array binding signal (z-score),[23],-0.533
same,glycan array binding signal (z-score),[24],-0.451
same,glycan array binding signal (z-score),[25],-0.278
same,glycan array binding signal (z-score),[26],-0.292
